# The supplement of paper PMC8728848
# This is one part of the list.
# B1: LCA (Lens culinaris), P02870 (protein)
# chain: MASLQTQMISFYLIFLSILLTTIFFFKVNSTETTSFSITKFSPDQKNLIFQGDGYTTKGKLTLTKAVKSTVGRALYSTPIHIWDRDTGNVANFVTSFTFVIDAPSSYNVADEFTFFIAPVDTKPQTGGGYLGVFNSKEYDKTSQTVAVEFDTFYNAAWDPSNKERHIGIDVNSIKSVNTKSWNLQNGERANVVIAFNAATNVLTVTLTYPNSLEEENVTSYTLNEVVPLKDVVPEWVRIGFSATTGAEFAAHEVHSWSFHSELGGTSSSKQAADA
# Assays:
# Assay in all cases: glycan array binding signal (z-score within array); higher = stronger binding
# Details in all cases: glycan notation: IUPAC condensed, linker removed
# [1] = target: Neu5Ac(a2-3)Gal(b1-3)[GlcNAc(b1-6)]GalNAc
# In short: (§1)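 The binding signal is a Z-score computed within each array. Data were drawn from 3228 arrays in the Consortium for Functional Glycomics database, restricted to those with a known protein sequence. Scores were averaged over arrays of the same protein sequence at different concentrations or buffers, and over linkers, and negative values can be taken as non-binding.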
# [2] = target: Neu5Ac(a2-3)Gal(b1-3)[Neu5Ac(a2-3)Gal(b1-4)]GlcNAc
# In short: as §1
# [3] = target: Neu5Ac(a2-3)Gal(b1-3)[Neu5Ac(a2-6)]GalNAc
# In short: as §1
# [4] = target: Neu5Ac(a2-3)Gal(b1-3)[Neu5Ac(a2-6)]GlcNAc(b1-3)[Fuc(a1-3)[Gal(b1-4)]GlcNAc(b1-6)]Gal(b1-4)Glc
# In short: as §1
# [5] = target: Neu5Ac(a2-3)Gal(b1-3)]Neu5Ac(a2-3)Gal(b1-4)]GlcNAc
# In short: as §1
# Neu5Ac(a2-3)Gal(b1-4)Glc = target: Neu5Ac(a2-3)Gal(b1-4)Glc
# In short: as §1
# [6] = target: Neu5Ac(a2-3)Gal(b1-4)GlcNAc
# In short: as §1
# [7] = target: Neu5Ac(a2-3)Gal(b1-4)GlcNAc(b1-2)Man
# In short: as §1
# [8] = target: Neu5Ac(a2-3)Gal(b1-4)GlcNAc(b1-2)Man(a1-3)[GlcNAc(b1-4)][Neu5Ac(a2-3)Gal(b1-4)GlcNAc(b1-2)Man(a1-6)]Man(b1-4)GlcNAc(b1-4)GlcNAc
# In short: as §1
# [9] = target: Neu5Ac(a2-3)Gal(b1-4)GlcNAc(b1-2)Man(a1-3)[Neu5Ac(a2-3)Gal(b1-4)GlcNAc(b1-2)Man(a1-6)]Man(b1-4)GlcNAc(b1-4)GlcNAc
# In short: as §1
# [10] = target: Neu5Ac(a2-3)Gal(b1-4)GlcNAc(b1-2)Man(a1-3)[Neu5Ac(a2-3)Gal(b1-4)GlcNAc(b1-2)Man(a1-6)]Man(b1-4)GlcNAc(b1-4)[Fuc(a1-6)]GlcNAc
# In short: as §1
# [11] = target: Neu5Ac(a2-3)Gal(b1-4)GlcNAc(b1-2)Man(a1-3)[Neu5Ac(a2-6)Gal(b1-4)GlcNAc(b1-2)Man(a1-6)]Man(b1-4)GlcNAc(b1-4)GlcNAc
# In short: as §1
# [12] = target: Neu5Ac(a2-3)Gal(b1-4)GlcNAc(b1-2)[Neu5Ac(a2-3)Gal(b1-4)GlcNAc(b1-4)]Man(a1-3)[GlcNAc(b1-4)][Neu5Ac(a2-3)Gal(b1-4)GlcNAc(b1-2)[Neu5Ac(a2-3)Gal(b1-4)GlcNAc(b1-6)]Man(a1-6)]Man(b1-4)GlcNAc(b1-4)GlcNAc
# In short: as §1
# [13] = target: Neu5Ac(a2-3)Gal(b1-4)GlcNAc(b1-2)[Neu5Ac(a2-3)Gal(b1-4)GlcNAc(b1-4)]Man(a1-3)[GlcNAc(b1-4)][Neu5Ac(a2-3)Gal(b1-4)GlcNAc(b1-4)Man(a1-6)]Man(b1-4)GlcNAc(b1-4)GlcNAc
# In short: as §1
# [14] = target: Neu5Ac(a2-3)Gal(b1-4)GlcNAc(b1-2)[Neu5Ac(a2-3)Gal(b1-4)GlcNAc(b1-6)]Man(a1-6)[Neu5Ac(a2-3)Gal(b1-4)GlcNAc(b1-2)Man(a1-3)]Man(b1-4)GlcNAc(b1-4)GlcNAc
# In short: as §1
# [15] = target: Neu5Ac(a2-3)Gal(b1-4)GlcNAc(b1-2)[Neu5Ac(a2-3)Gal(b1-4)GlcNAc(b1-6)]Man(a1-6)[Neu5Ac(a2-3)Gal(b1-4)GlcNAc(b1-2)Man(a1-3)][GlcNAc(b1-4)]Man(b1-4)GlcNAc(b1-4)GlcNAc
# In short: as §1
# [16] = target: Neu5Ac(a2-3)Gal(b1-4)GlcNAc(b1-3)Gal
# In short: as §1
# [17] = target: Neu5Ac(a2-3)Gal(b1-4)GlcNAc(b1-3)Gal(b1-3)GlcNAc
# In short: as §1
# [18] = target: Neu5Ac(a2-3)Gal(b1-4)GlcNAc(b1-3)Gal(b1-4)GlcNAc
# In short: as §1
# [19] = target: Neu5Ac(a2-3)Gal(b1-4)GlcNAc(b1-3)Gal(b1-4)GlcNAc(b1-2)Man(a1-3)[Neu5Ac(a2-3)Gal(b1-4)GlcNAc(b1-3)Gal(b1-4)GlcNAc(b1-2)Man(a1-6)]Man(b1-4)GlcNAc(b1-4)GlcNAc
# In short: as §1
# [20] = target: Neu5Ac(a2-3)Gal(b1-4)GlcNAc(b1-3)Gal(b1-4)GlcNAc(b1-3)Gal(b1-4)GlcNAc
# In short: as §1
# [21] = target: Neu5Ac(a2-3)Gal(b1-4)GlcNAc(b1-3)Gal(b1-4)GlcNAc(b1-3)Gal(b1-4)GlcNAc(b1-2)Man(a1-3)[Neu5Ac(a2-3)Gal(b1-4)GlcNAc(b1-3)Gal(b1-4)GlcNAc(b1-3)Gal(b1-4)GlcNAc(b1-2)Man(a1-6)]GalNAc
# In short: as §1
# [22] = target: Neu5Ac(a2-3)Gal(b1-4)GlcNAc(b1-3)Gal(b1-4)GlcNAc(b1-3)GalNAc
# In short: as §1
# [23] = target: Neu5Ac(a2-3)Gal(b1-4)GlcNAc(b1-3)Gal(b1-4)GlcNAc(b1-3)[Neu5Ac(a2-3)Gal(b1-4)GlcNAc(b1-3)Gal(b1-4)GlcNAc(b1-6)]GalNAc
# In short: as §1
# [24] = target: Neu5Ac(a2-3)Gal(b1-4)GlcNAc(b1-3)Gal(b1-4)GlcNAc(b1-6)[Gal(b1-3)]GalNAc
# In short: as §1
# [25] = target: Neu5Ac(a2-3)Gal(b1-4)GlcNAc(b1-3)Gal(b1-4)[Fuc(a1-3)]GlcNAc
# In short: as §1
# [26] = target: Neu5Ac(a2-3)Gal(b1-4)GlcNAc(b1-3)GalNAc
# In short: as §1
# [27] = target: Neu5Ac(a2-3)Gal(b1-4)GlcNAc(b1-3)[Neu5Ac(a2-3)Gal(b1-4)GlcNAc(b1-6)]GalNAc
# In short: as §1
# [28] = target: Neu5Ac(a2-3)Gal(b1-4)GlcNAc(b1-6)GalNAc
# In short: as §1
# [29] = target: Neu5Ac(a2-3)Gal(b1-4)GlcNAc(b1-6)[Gal(b1-3)]GalNAc
# In short: as §1
# [30] = target: Neu5Ac(a2-3)Gal(b1-4)GlcNAc(b1-6)[Neu5Ac(a2-3)Gal(b1-3)]GalNAc
# In short: as §1
# [31] = target: Neu5Ac(a2-3)Gal(b1-4)GlcNAc6S
# In short: as §1
# [32] = target: Neu5Ac(a2-3)Gal(b1-4)[Fuc(a1-3)]GlcNAc
# In short: as §1
# [33] = target: Neu5Ac(a2-3)Gal(b1-4)[Fuc(a1-3)]GlcNAc(b1-2)Man
# In short: as §1
# [34] = target: Neu5Ac(a2-3)Gal(b1-4)[Fuc(a1-3)]GlcNAc(b1-3)Gal
# In short: as §1
# [35] = target: Neu5Ac(a2-3)Gal(b1-4)[Fuc(a1-3)]GlcNAc(b1-3)Gal(b1-4)GlcNAc
# In short: as §1
# [36] = target: Neu5Ac(a2-3)Gal(b1-4)[Fuc(a1-3)]GlcNAc(b1-3)Gal(b1-4)[Fuc(a1-3)]GlcNAc(b1-3)Gal(b1-4)[Fuc(a1-3)]GlcNAc
# In short: as §1
# [37] = target: Neu5Ac(a2-3)Gal(b1-4)[Fuc(a1-3)]GlcNAc(b1-3)GalNAc
# In short: as §1
# [38] = target: Neu5Ac(a2-3)Gal(b1-4)[Fuc(a1-3)]GlcNAc(b1-6)[Gal(b1-3)]GalNAc
# In short: as §1
# [39] = target: Neu5Ac(a2-3)Gal(b1-4)[Fuc(a1-3)]GlcNAc(b1-6)[Neu5Ac(a2-3)Gal(b1-3)]GalNAc
# In short: as §1
# [40] = target: Neu5Ac(a2-3)Gal(b1-4)[Fuc(a1-3)]GlcNAc6S
# In short: as §1
# [41] = target: Neu5Ac(a2-3)Gal6S(b1-4)GlcNAc
# In short: as §1
# [42] = target: Neu5Ac(a2-3)Gal6S(b1-4)[Fuc(a1-3)]GlcNAc
# In short: as §1
# Neu5Ac(a2-3)GalNAc = target: Neu5Ac(a2-3)GalNAc
# In short: as §1
# [43] = target: Neu5Ac(a2-3)GalNAc(b1-4)GlcNAc
# In short: as §1
binder,measurement,setting,value
B1,glycan array binding signal (z-score),[1],-0.233
same,glycan array binding signal (z-score),[2],-0.228
same,glycan array binding signal (z-score),[3],-0.19
same,glycan array binding signal (z-score),[4],-0.234
same,glycan array binding signal (z-score),[5],-0.221
same,glycan array binding signal (z-score),Neu5Ac(a2-3)Gal(b1-4)Glc,-0.185
same,glycan array binding signal (z-score),[6],-0.226
same,glycan array binding signal (z-score),[7],-0.199
same,glycan array binding signal (z-score),[8],-0.262
same,glycan array binding signal (z-score),[9],-0.256
same,glycan array binding signal (z-score),[10],2.88
same,glycan array binding signal (z-score),[11],-0.237
same,glycan array binding signal (z-score),[12],-0.258
same,glycan array binding signal (z-score),[13],-0.267
same,glycan array binding signal (z-score),[14],-0.223
same,glycan array binding signal (z-score),[15],-0.238
same,glycan array binding signal (z-score),[16],-0.236
same,glycan array binding signal (z-score),[17],-0.217
same,glycan array binding signal (z-score),[18],-0.231
same,glycan array binding signal (z-score),[19],0.32
same,glycan array binding signal (z-score),[20],-0.228
same,glycan array binding signal (z-score),[21],0.411
same,glycan array binding signal (z-score),[22],-0.262
same,glycan array binding signal (z-score),[23],-0.123
same,glycan array binding signal (z-score),[24],-0.102
same,glycan array binding signal (z-score),[25],-0.245
same,glycan array binding signal (z-score),[26],-0.212
same,glycan array binding signal (z-score),[27],-0.259
same,glycan array binding signal (z-score),[28],-0.244
same,glycan array binding signal (z-score),[29],-0.236
same,glycan array binding signal (z-score),[30],-0.208
same,glycan array binding signal (z-score),[31],-0.235
same,glycan array binding signal (z-score),[32],-0.234
same,glycan array binding signal (z-score),[33],-0.225
same,glycan array binding signal (z-score),[34],-0.213
same,glycan array binding signal (z-score),[35],-0.199
same,glycan array binding signal (z-score),[36],-0.183
same,glycan array binding signal (z-score),[37],-0.117
same,glycan array binding signal (z-score),[38],-0.145
same,glycan array binding signal (z-score),[39],-0.165
same,glycan array binding signal (z-score),[40],-0.234
same,glycan array binding signal (z-score),[41],-0.235
same,glycan array binding signal (z-score),[42],-0.228
same,glycan array binding signal (z-score),Neu5Ac(a2-3)GalNAc,-0.217
same,glycan array binding signal (z-score),[43],-0.236
